This passage reports AC50 results from PubChem BioAssay (NCATS).

This is one part of the list. Shown are side measurements of this screen, not its main read-out; they come without a call. Compounds called inactive in the main read-out are mostly missing here. Potencies come from curve fits of mixed quality, noted in brackets.
Tags tell the direction and shape of the fitted curve.

A short description of this assay: Cell-based coincidence reporter assay to measure PMP22 gene transcription in S16 Pmp22-F2sN cells - Confirmatory screen (AID 1508646). The note with it: S16 Schwann cells Pmp22-F2sN, dual luciferase, 24 h; measured here: NLuc reporter channel. In outline:
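S16 rat Schwann cells carrying FLuc-2A-NLuc reporter in Pmp22 3' UTR (500-1,000 cells/well) treated with pinned compounds for 24 h at 37C. Dual-luciferase reads: FLuc luminescence first, then NLuc after Stop&Glo.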
(In general: Reporter assays use an easily measured gene product as a stand-in for the process of interest.)
By AC50 is commonly meant the concentration at which the activity in the assay is half-maximal. Low readings indicate greater potency, high ones weaker potency. As for `COc1ccc(C2Sc3ccccc3NC3=C2C(=O)c2ccccc23)c(OC)c1OC` (configuration not stated), the concentration at half-maximal activity (AC50) was 4.85 µM [falling, full curve]. For the compound `CCN(CC)CCCNC(=O)CSc1c2c(nc3cc(Cl)ccc13)CCCC2`, the AC50 was 12.2 µM [falling, partial curve]. In the case of `COc1cc(C2CC(=O)Nc3cc4c(cc32)OCCO4)cc(Br)c1OC` (configuration not stated), the AC50 is 1.09 µM [falling, partial curve, poor fit]. Turning to `COc1cc(C(=O)Nc2c(C(=O)Nc3ccccc3F)oc3ccccc23)cc(OC)c1OC`, the AC50 was 8.62 µM [falling, partial curve]. Consider `COC(=O)c1c(-c2ccc(Cl)cc2)noc1N1CCN(c2cccc(C(F)(F)F)c2)CC1`, for which the AC50 is 17.2 µM [falling, partial curve]. The value for `Cc1cccc(Nc2cc(C)nc(-n3nc(C)cc3C)n2)c1` was 15.3 µM [falling, partial curve, poor fit]; that for `COC(=O)c1c(C)oc2ccc(N(C(=O)c3ccncc3)S(=O)(=O)c3c(C)cc(C)cc3C)cc12` was 19.3 µM [falling, partial curve, poor fit]; that for `O=C(NCc1ccccc1Cl)c1ccc(Nc2nc3ccccc3n3nnnc23)cc1` was 15.3 µM [falling, partial curve, poor fit]. As to `CCC(C)NC(=O)CSc1c2c(nc3cc(Cl)ccc13)CCCC2` (configuration not stated), the AC50 is 21.7 µM [falling, partial curve, poor fit]. The value for `Cc1ccc(CNC(=O)Cn2c(=O)n(-c3cccc(Cl)c3)c(=O)c3sc4ccccc4c32)cc1` was 24.3 µM [falling, partial curve, poor fit]. As to `O=C(CSc1ncc2c(n1)-c1ccccc1N(Cc1ccc(F)cc1)S2(=O)=O)NCCc1ccccc1`, the concentration at half-maximal activity (AC50) is 21.7 µM [falling, partial curve].

Consider `Cc1ccc(NC(=O)c2nc(S(=O)(=O)Cc3cccc(C)c3)ncc2Cl)cc1`, for which the AC50 was 15.3 µM [falling, partial curve]. Consider `Cc1ccc(C(=O)c2oc3ccccc3c2NC(=O)c2nc(S(C)(=O)=O)ncc2Cl)cc1F`, for which the half-maximal activity concentration (AC50) was 15.3 µM [falling, partial curve]. `COc1cc(OC)c(OC)cc1CN1CCc2nc(N3CCN(c4ccccc4F)CC3)ncc2C1`: the AC50 was 43.2 µM [falling, single point]. As for `CCn1ccc2c(OCC(=O)Nc3ccccc3C(F)(F)F)cccc2c1=O`, the AC50 was 12.2 µM [falling, partial curve, poor fit]. In the case of `Cc1[nH]c2ccccc2c1C1(O)C(=O)N(Cc2ccccc2)c2ccc(Cl)cc21` (configuration not stated), the AC50 was 24.3 µM [falling, partial curve]. For `CCCC1=Nc2cc(C(=O)NC3CCCCC3)ccc2Sc2ccc(C)cc21`, the concentration at half-maximal activity (AC50) is 3.85 µM [falling, full curve]. On to `COc1ccc(-c2onc(C)c2C)cc1S(=O)(=O)NCc1ccc(C)o1`, for which the AC50 was 15.3 µM [falling, single point]. Consider `COc1cccc(CNC(=O)Nc2ccc3c(c2)N(C)C(=O)c2ccccc2S3)c1`, for which the AC50 was 43.2 µM [falling, single point]. Take `COc1ccc(-c2onc(C)c2C)cc1S(=O)(=O)NCC1CCN(Cc2cccc(F)c2)CC1`: the AC50 is 27.3 µM [falling, partial curve]. Regarding `COc1ccc(CC(=O)Nc2sc3c(c2C(=O)Nc2cccc(C)c2)CCCCC3)cc1`, the AC50 was 21.7 µM [falling, partial curve].

In the case of `COc1nnc(-c2ccc(N3CCCCC3)c(NC(=O)c3ccc(Cl)cc3)c2)c2ccccc12`, the AC50 is 43.2 µM [falling, partial curve, poor fit]. For `Cc1ccc(CCNC(=O)c2ccc(Nc3nc4ccccc4n4nnnc34)cc2)cc1`, the AC50 was 21.7 µM [falling, partial curve].

With `CCCN(C(=O)c1cc2c(=O)n(CC)c3ccccc3c2s1)c1ccccc1F`, the AC50 is 43.2 µM [falling, single point]. The result for `COc1cccc(NC(=O)N(Cc2c[nH]c3ccccc23)C2CCCCCC2)c1` reads 34.3 µM [falling, single point]; that for `Cc1ccccc1S(=O)(=O)Cc1ccc(C(=O)N2CCN(c3cccc(Cl)c3)CC2)o1`, 8.62 µM [falling, full curve]. `Cc1cc(C)cc(Nc2cc(C(=O)NCCCN(C)C3CCCCC3)c3ccccc3n2)c1`: the concentration at half-maximal activity (AC50) was 15.3 µM [falling, full curve].
